In all, about 390,000 compounds went through this assay and about 17,000 (4.4%) were called active. Inconclusive results, whose numbers are uncertain, are shown with a selection of clear calls. Calls come from the whole dose curve; as a rule, active = well fitted inhibition curve with a large enough effect; inconclusive = small, poorly fitted or top-dose-only effect; inactive = no such curve, though single readings can be large or run the other way. Where the call is inconclusive, the potency comes from a doubtful curve fit.
Molecular target: Lysine-specific demethylase 4A (Homo sapiens) (UniProt O75164)
UniProt O75164, sequence (O75164 whole entry, looked up, the tested form may be a part): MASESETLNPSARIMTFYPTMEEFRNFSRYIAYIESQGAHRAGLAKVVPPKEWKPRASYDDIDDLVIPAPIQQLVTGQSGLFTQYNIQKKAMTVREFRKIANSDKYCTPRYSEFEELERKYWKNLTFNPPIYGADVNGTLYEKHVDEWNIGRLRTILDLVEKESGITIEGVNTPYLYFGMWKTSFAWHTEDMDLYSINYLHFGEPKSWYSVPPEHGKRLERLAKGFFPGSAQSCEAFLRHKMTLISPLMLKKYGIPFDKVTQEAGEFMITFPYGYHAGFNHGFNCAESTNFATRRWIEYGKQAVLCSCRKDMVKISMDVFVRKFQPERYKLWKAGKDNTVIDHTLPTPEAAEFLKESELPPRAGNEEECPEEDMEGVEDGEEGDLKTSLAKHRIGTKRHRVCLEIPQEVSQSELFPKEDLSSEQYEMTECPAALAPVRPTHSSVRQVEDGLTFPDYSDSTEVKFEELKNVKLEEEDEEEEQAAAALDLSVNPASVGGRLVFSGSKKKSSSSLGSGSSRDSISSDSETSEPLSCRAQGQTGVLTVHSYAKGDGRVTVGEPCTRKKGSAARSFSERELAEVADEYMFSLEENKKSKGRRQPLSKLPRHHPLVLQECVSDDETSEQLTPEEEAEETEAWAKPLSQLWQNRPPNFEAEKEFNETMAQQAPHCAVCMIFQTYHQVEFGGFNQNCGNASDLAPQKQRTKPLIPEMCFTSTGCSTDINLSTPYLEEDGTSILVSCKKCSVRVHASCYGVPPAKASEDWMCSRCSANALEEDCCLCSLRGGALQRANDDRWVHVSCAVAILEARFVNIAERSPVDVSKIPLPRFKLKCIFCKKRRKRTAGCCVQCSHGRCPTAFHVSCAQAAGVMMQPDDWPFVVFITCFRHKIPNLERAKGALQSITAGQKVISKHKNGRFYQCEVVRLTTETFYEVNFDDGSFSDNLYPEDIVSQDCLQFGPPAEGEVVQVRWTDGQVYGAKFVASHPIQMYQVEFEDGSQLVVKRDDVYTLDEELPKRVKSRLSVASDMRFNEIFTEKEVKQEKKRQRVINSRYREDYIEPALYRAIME
Assay: qHTS Assay for Inhibitors of JMJD2A-Tudor Domain; note: nearly all actives have a fitted effect of over 50% in size
Conditions: AlphaScreen JMJD2A-Tudor / H3K4me3 peptide binding; activity change, negative = inhibition: at 114 µM (top of the series)
% is set by controls: 0 for no effect and ±100 for the full control effect; potency is the fitted concentration of half-maximal effect; tags give direction and shape of the fitted curve.

Potency, active:
COc1cccc(/C=N/N2CCN(c3ccccc3OC)CC2)c1 44.7 µM
COc1ccc(N2CCN(c3ncnc4scc(-c5ccc(F)cc5)c34)CC2)cc1 22.4 µM
CCOC(=O)c1cc(C)[nH]c(=S)c1C#N 6.31 µM
O=C(CSc1ncn[nH]1)c1cccc([N+](=O)[O-])c1 28.2 µM
NNc1ccccc1C(F)(F)F 31.6 µM
Cc1ccccc1S(=O)(=O)Cc1ccc(C(=O)NC2CC2)o1 50.1 µM
Cc1[nH]c2ccc(-c3n[nH]c(=S)n3-c3ccccc3)cc2c1C 56.2 µM
CCCCc1nc2sc3c(=O)[nH]c(=S)[nH]c3c2c2c1CCC2 20 µM
CC(OCCN1CCCC1)(c1ccc(F)cc1)c1ccc(F)cc1 89.1 µM

Potency, inconclusive:
COc1ccc(CNC(=O)C2CCN(C(=O)[C@@H]3Cc4ccccc4CN3)CC2)cc1 15.8 µM [inhibitor, partial curve, poor fit]
CCOC(=O)c1cc(-c2ccccc2)sc1NC(=O)C(C)N1C(=O)NC(C)(c2ccc(Cl)cc2)C1=O (stereo not drawn) 56.2 µM [inhibitor, partial curve]
O=[N+]([O-])c1ccc(S(=O)(=O)N2CCSC2c2ccco2)cc1 (stereo not drawn) 28.2 µM [inhibitor, partial curve]
O=C(Nc1ncc2c(n1)-c1ccccc1CC2)c1ccc(Cl)cc1 100 µM [inhibitor, partial curve, poor fit]
CC1(C)CC(=O)C(N=Nc2cc(Cl)c(Cl)c(Cl)c2)=C(O)C1 79.4 µM [inhibitor, partial curve]
COc1ccc(CCNC(=O)c2cnn(-c3ccc(F)cc3)c2C2CCN(C(=O)OC(C)(C)C)CC2)c(OC)c1 56.2 µM [inhibitor, partial curve]
Cn1c(=O)n(CCc2ccccc2)c(=O)c2c1nc1n2CCN1Cc1ccco1 28.2 µM [inhibitor, partial curve]
CCOc1ccc(C2=NNC(c3cccs3)=Nc3ccc(OC)cc32)cc1 63.1 µM [inhibitor, partial curve]
CC(C)(C)c1ccc(CNc2cc(N3CCOCC3)ccc2[N+](=O)[O-])cc1 44.7 µM [inhibitor, partial curve]
COCC(C)n1c(C)cc(C(=O)CSc2nnnn2-c2ccc(O)cc2)c1C (stereo not drawn) 56.2 µM [inhibitor, partial curve]
O=C(N/N=C/c1cc([N+](=O)[O-])cc([N+](=O)[O-])c1O)C(O)(c1ccccc1)c1ccccc1 79.4 µM [inhibitor, partial curve]
O=C1NCC(c2ccccc2)C1C(=O)N/N=C\c1ccc(-c2ccc(Cl)c(Cl)c2)o1 (stereo not drawn) 56.2 µM [inhibitor, partial curve]
Cc1ccc(NC(=O)CSc2nnc3[nH]c(=O)cc(-c4ccccc4)n23)cc1Cl 56.2 µM [inhibitor, partial curve]
COc1ccc(CC(=O)Nc2ccc(-c3noc(-c4ccccc4OC)n3)cc2)cc1 25.1 µM [inhibitor, full curve, poor fit]
CCCCOc1ccc(S(=O)(=O)NNC(=O)c2cc3ccccc3o2)cc1 10 µM [inhibitor, partial curve, poor fit]
O=C(Nc1cccnc1)c1ccccc1F 89.1 µM [inhibitor, single point]
CCN(CCCNC(=O)CN1C(=O)COc2ccccc21)c1cccc(C)c1 44.7 µM [inhibitor, partial curve]
Cc1ccc2nc(-c3cccc(S(=O)(=O)N4CC(C)OC(C)C4)c3)cn2c1 (stereo not drawn) 22.4 µM [inhibitor, full curve, poor fit]
O=C1C(=O)N(CCCn2ccnc2)C(c2cccnc2)/C1=C(/O)c1ccc(F)cc1 (stereo not drawn) 56.2 µM [inhibitor, partial curve]
CC(=O)Nc1nnc(-c2ccccn2)o1 44.7 µM [inhibitor, single point]
Cc1ccc(NC(=O)COc2coc(CN3CCc4ccccc43)cc2=O)c(C)c1 44.7 µM [inhibitor, partial curve]
CC(=O)Nc1ccc(CN2CCc3c([nH]c4ccccc34)C2c2ccccn2)cc1 (stereo not drawn) 56.2 µM [inhibitor, partial curve]
CC(=O)N(Cc1cc2c(C)cc(C)cc2[nH]c1=O)C1CCCCC1 35.5 µM [inhibitor, single point]

Activity change, negative = inhibition, inactive:
O=S(=O)(c1cc(Cl)ccc1Cl)n1cccn1 5.19%
O=C(COc1cc(F)ccc1[N+](=O)[O-])Nc1cccc(S(=O)(=O)NC2=NCCC2)c1 -3.04%
O=C(NCc1ccco1)C1CCCN(S(=O)(=O)c2ccc(-n3cnnn3)cc2)C1 (stereo not drawn) -33.1%
O=c1c2c(nc3c(-c4ccccc4)c[nH]n13)CCC2 -10.1%
CC1Oc2ccccc2C=C1/C=N\NC(=O)c1cccnc1 (stereo not drawn) 13.1% [at 57.1 µM]
CN1C=CC=C/C1=C1/N=C(c2ccccc2)OC1=O -6.16%
CC1CC(C)CN(c2cc(=O)n(Cc3ccc(F)cc3)c(=O)[nH]2)C1 (stereo not drawn) -13.2%
Cc1cccc(NC(=O)Cn2cc(C(=O)C3CC3)c3ccccc32)c1C -12%
Cc1cc(Nc2cccc(Cl)c2Cl)n2ncnc2n1 -15.3%
COc1ccc(NC(=O)c2c(NC(=O)COc3ccccc3)sc3c2CCC(C)C3)cc1 (stereo not drawn) -1.73%
COc1ccc2nc(NC(=O)CSc3nccc(C)n3)sc2c1 -21.3%
CC1CCN(c2ccccc2NC(=S)NC(=O)C(C)(C)C)CC1 -29.6%
O=C(NNc1nc2cc3c(cc2s1)OCCO3)c1ccccc1 -31.7%
CC(=O)N1c2ccccc2CC1C(=O)NCc1cccc(Cl)c1 (stereo not drawn) 2.68%
Cc1ccccc1Cn1nc(C)c(NC(=O)c2nc3n(n2)C(C(F)F)CC(C)N3)c1C (stereo not drawn) 9.68%
CC(=O)Nc1ccc(/C=C(\C#N)S(=O)(=O)c2ccc(C)cc2)cc1 -17.9%

Source: PubChem BioAssay AID504339 (National Center for Advancing Translational Sciences (NCATS), 2011)
